Measured values published in the supplement of paper PMC12217912.
Some of the results follow. The full chains were built here from the parent and the listed change. Inactive controls read about 0.05.

B1: TEV protease; numbered along this chain (parent)
chain: MGESLFKGPRDYNPISSSICHLTNESDGHTTSLYGIGFGPFIITNKHLFRRNNGTLVVQSLHGVFKVKDTTTLQQHLVDGRDMIIIRMPKDFPPFPQKLKFREPQREERICLVTTNFQTKSMSSMVSDTSCTFPSGDGIFWKHWIQTKDGQCGSPLVSTRDGFIVGIHSASNFTNTNNYFTSVPKNFMELLTNQEAQQWVSGWRLNADSVLWGGHKVFMVKPEEPFQPVKEATQL

Variants of: B1
Test: raw area under fraction-flipped curve 0-4 h after induction (AUC4h, not background-subtracted), DNA-recorder readout of cleavage of the substrate (dimensionless); higher = more cleavage of the substrate by the protease variant
Conditions: temperature: 34 °C; time window: 0-4 h after rhamnose induction
Method: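 In vivo DNA recorder in E. coli TOP10(DE3) ΔrhaA at 34 °C. Each TEVp single-site mutant (parent TEVp 0) is paired with a single-site variant of the 7-mer TEVs (canonical ENLYFQ|S). The substrate sits between flexible linkers in a Bxb1-sfGFP-TEVs-SsrA fusion, so cleavage stabilises Bxb1 and speeds flipping of a recombination array, read by NGS. The value is the raw area under the fraction-flipped curve over 0-4 h after rhamnose induction (AUC4h), with ≥20 reads per time point. It is not background-subtracted; inactive controls average about 0.047.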
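Note: Bxb1 expression induced with 0.2% (w/v) L-rhamnose at OD600 near 0.5, cultures sampled hourly, flipped fraction per protease–substrate barcode pair counted by paired-end Illumina sequencing.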

Variant | area with substrate ENLYAQS | area with substrate ENLYCQS | area with substrate ENLYDQS | area with substrate ENLYEQS | area with substrate ENLYGQS | area with substrate ENLYHQS | area with substrate ENLYIQS | area with substrate ENLYKQS | area with substrate ENLYNQS | area with substrate ENLYPQS | area with substrate ENLYQQS | area with substrate ENLYRQS | area with substrate ENLYMQS | area with substrate ENLYVQS | area with substrate ENLYWQS | area with substrate ENLYYQS | area with substrate ENLYLQS | area with substrate ENLYSQS | area with substrate ENLYTQS
MGESLFKGPRDYNPISSSICHLTNESDGHTTSLYGIGFGPFIITNKHLFRRNNGTLVVQSLHGVFKVKDTTTLQQHLVDGRDMCIIRMPKDFPPFPQKLKFREPQREERICLVTTNFQTKSMSSMVSDTSCTFPSGDGIFWKHWIQTKDGQCGSPLVSTRDGFIVGIHSASNFTNTNNYFTSVPKNFMELLTNQEAQQWVSGWRLNADSVLWGGHKVFMVKPEEPFQPVKEATQL [I84C] | 0.0803 | 0.0721 | 0.053 | 0.065 | 0.0709 | 0.0737 | 0.111 | 0.0882 | 0.0762 | 0.0957 | 0.0741 | 0.0495 |  |  |  |  |  |  | 
MGESLFKGPRDYNPISSSICHLTNESDGHTTSLYGIGFGPFIITNKHLFRRNNGTLVVQSLHGVFKVKDTTTLQQHLVDGRDMIIIRMPKDFPPFPQKLKFREPQREERICLVTTNFQTKSMSSMVSDTSCTFPSGDGIFWKLWIQTKDGQCGSPLVSTRDGFIVGIHSASNFTNTNNYFTSVPKNFMELLTNQEAQQWVSGWRLNADSVLWGGHKVFMVKPEEPFQPVKEATQL [H143L] | 0.0554 |  | 0.0579 |  | 0.0507 | 0.0624 |  | 0.049 | 0.0579 | 0.0636 | 0.0574 | 0.0136 | 0.0587 | 0.0754 | 0.0629 | 0.0559 |  |  | 
MGESLFKGPRDYNPISSSICHLTNESDGHTTSLYGIGFGPFIITNKHLFRRNNGTLVVQSLHGVTKVKDTTTLQQHLVDGRDMIIIRMPKDFPPFPQKLKFREPQREERICLVTTNFQTKSMSSMVSDTSCTFPSGDGIFWKHWIQTKDGQCGSPLVSTRDGFIVGIHSASNFTNTNNYFTSVPKNFMELLTNQEAQQWVSGWRLNADSVLWGGHKVFMVKPEEPFQPVKEATQL [F65T] | 0.07 | 0.005 | 0.0653 | 0.0637 | 0.044 | 0.0669 |  |  | 0.0687 |  | 0.0564 |  | 0.0852 | 0.116 |  |  | 0.0758 | 0.0653 | 0.0685
MGESLFKGPRDYNPISSSICHLTNESDGHTTSLYGIGFGPFIITNKHLFRRNNGTLVVQSLHGVFKVKDTTTLQQHLVDGRDMIIIRMPKDFPPFPQKLKFREPQREERICLVTTNFQTKSMSSMVSDTSCTFPSGDGIFWKHWIQTKDGQCGSPLVSTRDGFIVGIHSASNFTNTNNYFTSVPKNFMELLTNQEAQQWVSGWRLNADSVLWGGHKVFMVKPCEPFQPVKEATQL [E223C] | 0.0781 | 0.0758 |  | 0.0685 | 0.0637 | 0.0663 | 0.11 | 0.0543 | 0.0708 | 0.0673 | 0.0722 | 0.0661 | 0.0839 | 0.119 | 0.0566 | 0.0597 | 0.0724 | 0.0721 | 0.0833
MGESLFKGPRDYNPISSSICHLTNESDGHTTSLYGIGFGPFIPTNKHLFRRNNGTLVVQSLHGVFKVKDTTTLQQHLVDGRDMIIIRMPKDFPPFPQKLKFREPQREERICLVTTNFQTKSMSSMVSDTSCTFPSGDGIFWKHWIQTKDGQCGSPLVSTRDGFIVGIHSASNFTNTNNYFTSVPKNFMELLTNQEAQQWVSGWRLNADSVLWGGHKVFMVKPEEPFQPVKEATQL [I43P] | 0.0516 | 0.054 | 0.0517 | 0.0441 | 0.0533 | 0.037 | 0.0368 | 0.0141 | 0.0438 | 0.0771 |  | 0.0557 | 0.0462 | 0.0516 | 0.038 | 0.0469 |  | 0.0512 | 0.0479
MGESLFKGPRDYNPISESICHLTNESDGHTTSLYGIGFGPFIITNKHLFRRNNGTLVVQSLHGVFKVKDTTTLQQHLVDGRDMIIIRMPKDFPPFPQKLKFREPQREERICLVTTNFQTKSMSSMVSDTSCTFPSGDGIFWKHWIQTKDGQCGSPLVSTRDGFIVGIHSASNFTNTNNYFTSVPKNFMELLTNQEAQQWVSGWRLNADSVLWGGHKVFMVKPEEPFQPVKEATQL [S17E] | 0.0696 | 0.0952 | 0.0635 | 0.0642 | 0.0545 | 0.0667 | 0.159 | 0.0472 | 0.0588 | 0.0753 | 0.067 | 0.0352 | 0.0929 | 0.119 | 0.0892 | 0.0657 | 0.0891 | 0.0753 | 0.0837
MGESLFKGPRDYNPISSSICHLTNESDGHTTSLYGIGFGPFIITNKHLFRRNNGTLVVQSLHGVFKVKDTTTLQQHLVDGRDMIIIRMPKDFPPFPQKLKFREPQREERICLVTTNFQTKSMSSMVSDTSCTFPSGDGIFWKHWIQTKDGQCGSPLVSTRDGFIVGIHRASNFTNTNNYFTSVPKNFMELLTNQEAQQWVSGWRLNADSVLWGGHKVFMVKPEEPFQPVKEATQL [S169R] | 0.0623 |  | 0.0773 | 0.0722 |  | 0.0553 | 0.0606 | 0.0564 | 0.0667 | 0.0801 |  | 0.0625 | 0.081 | 0.0667 | 0.0687 |  | 0.0738 | 0.0654 | 0.0775
MGESLFKGPRDYNPISSSICHLTNESDGHTTSLYGIGFGPFIITNKHLFRRNNGTLVVQSLHGVFKVKDWTTLQQHLVDGRDMIIIRMPKDFPPFPQKLKFREPQREERICLVTTNFQTKSMSSMVSDTSCTFPSGDGIFWKHWIQTKDGQCGSPLVSTRDGFIVGIHSASNFTNTNNYFTSVPKNFMELLTNQEAQQWVSGWRLNADSVLWGGHKVFMVKPEEPFQPVKEATQL [T70W] | 0.0648 | 0.062 | 0.0628 | 0.0618 | 0.0655 | 0.0632 | 0.0727 | 0.0794 | 0.0569 | 0.0766 | 0.0618 | 0.0629 | 0.0654 | 0.0696 | 0.0607 | 0.0594 | 0.062 |  | 
